Results reported in the supplement of paper PMC3334620.
Whole data set: some 33,000 sequences, median “E-score (-0.5 to 0.5)” near -0.04, cut for the highest 2% near 0.36. This is one part of the list.

target: T1, Hmlalpha2 (UniProt P0CY09); test: PBM E-score (8-mer binding enrichment) (E-score (-0.5 to 0.5)); higher = stronger / more preferred TF binding; most listed sequences are background and not binding sites; conditions: protein concentration: 200 nM; construct: GST-full length
T1 sequence: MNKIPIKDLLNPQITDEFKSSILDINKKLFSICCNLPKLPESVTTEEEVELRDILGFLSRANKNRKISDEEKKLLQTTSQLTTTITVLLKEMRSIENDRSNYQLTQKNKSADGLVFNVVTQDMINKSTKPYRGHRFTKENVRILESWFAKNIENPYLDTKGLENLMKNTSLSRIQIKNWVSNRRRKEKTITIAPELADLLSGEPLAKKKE
Description: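 Universal 'all 10-mer' protein binding microarrays (Agilent AMADID 015681) probed with GST-tagged S. cerevisiae TFs (full-length or DBD) made by in vitro transcription/translation (PURExpress), about 100-200 nM. Bound TF was detected with fluorescent anti-GST. Each ungapped 8-mer (which stands for itself and its reverse complement) is scored by the PBM enrichment score (E-score), a modified Wilcoxon-Mann-Whitney statistic from -0.5 to +0.5, computed with the Universal PBM Analysis Suite. Scale: above 0.35 generally sequence-specific binding.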

Compared with CAAGTTGC, CCTCCACA is lower in “PBM E-score” value: 0.00682 for the first, -0.155 for the second.

Going from CGCCGTTA to GGAATGAC, the “PBM E-score” value falls from 0.0382 to -0.0716.

Going from GGTTCCCA to ATTGGAGC, the “PBM E-score” value rises from -0.14 to -0.00981.

Going from AAATCAGT to CCCAACAG, the “PBM E-score” value falls from -0.0377 to -0.26.

Going from ATAACCAC to GTCACGAC, the “PBM E-score” value rises from -0.0123 to 0.0221.

Compared with CAAACGCC, ACGTTAGA is higher in “PBM E-score” value: -0.0432 for the first, 0.146 for the second.

Compared with CAGACGAC, AAGTCACA is higher in “PBM E-score” value: -0.0894 for the first, 0.0483 for the second.

First: GAACTCCC
Second: GGAGCTTA
The “PBM E-score” value of the first is lower: -0.0984 for the first, -0.0509 for the second.

First: GGGCCTCA
Second: ACTTTATC
The “PBM E-score” value of the first is lower: -0.231 for the first, 0.137 for the second.

First: ACCGACTA
Second: AGCTGCAA
The “PBM E-score” value of the first is higher: -0.117 for the first, -0.227 for the second.

First: CGATTTGA
Second: GGGTGGAC
The “PBM E-score” value of the first is higher: 0.00766 for the first, -0.164 for the second.

First: GACCCCGA
Second: CAGCGCCC
The “PBM E-score” value of the first is higher: -0.179 for the first, -0.253 for the second.

Going from CTAATTGC to GGGTCTCA, the “PBM E-score” value falls from -0.0532 to -0.234.

First: CCTGTTGC
Second: GTCGGCAA
The “PBM E-score” value of the first is lower: -0.109 for the first, -0.012 for the second.

Going from AAGACCCG to AATAGGCT, the “PBM E-score” value rises from -0.237 to -0.0765.

First: GGGATAAC
Second: CCGAGCGA
The “PBM E-score” value of the first is higher: 0.0885 for the first, -0.126 for the second.

First: CAAATGCC
Second: ACAACTAG
The “PBM E-score” value of the first is lower: -0.202 for the first, 0.0362 for the second.

First: GGTTCCAA
Second: AACAGCGC
The “PBM E-score” value of the first is lower: -0.176 for the first, 0.146 for the second.

Going from AAGCCTCA to TCTCCTAA, the “PBM E-score” value rises from -0.15 to 0.0242.

First: ACTCCTCC
Second: TCGAAAAA
The “PBM E-score” value of the first is lower: -0.17 for the first, 0.125 for the second.

Compared with AGGCATGA, TACTTCGA is higher in “PBM E-score” value: -0.163 for the first, 0.0978 for the second.

Compared with ACGTAAAC, AAACCGTC is lower in “PBM E-score” value: 0.295 for the first, 0.0106 for the second.

Compared with GGGCTAGA, AATGCTAT is higher in “PBM E-score” value: -0.219 for the first, 0.0189 for the second.

Going from CAAGCAGG to AGCAACTC, the “PBM E-score” value rises from -0.167 to -0.0383.

Going from CGTCTCGC to ACGGCCAA, the “PBM E-score” value rises from -0.135 to 0.0334.

Going from AATCTGAA to TCCCAAAA, the “PBM E-score” value falls from 0.102 to 0.0448.

Compared with TAGCATCA, GCATCAGC is lower in “PBM E-score” value: 0.177 for the first, -0.173 for the second.

Going from AATCTAGC to CTCCGTTC, the “PBM E-score” value rises from -0.193 to -0.0463.

Compared with CACAGACC, CACATAGA is higher in “PBM E-score” value: -0.025 for the first, 0.0951 for the second.

First: GGCGTGGA
Second: ACAGATCA
The “PBM E-score” value of the first is lower: -0.341 for the first, 0.103 for the second.

First: GAAATTAA
Second: CACTCTCA
The “PBM E-score” value of the first is higher: 0.324 for the first, -0.0028 for the second.

Going from ATCTCTAA to CCTTACGA, the “PBM E-score” value rises from -0.12 to -0.0407.

Going from TCATAACA to ATTTATCC, the “PBM E-score” value falls from 0.296 to 0.1.

First: AGAACCCG
Second: TAAAATTA
The “PBM E-score” value of the first is lower: -0.196 for the first, 0.258 for the second.

First: AATAACGA
Second: CGATACCC
The “PBM E-score” value of the first is higher: 0.17 for the first, -0.0685 for the second.

Compared with AGTGTTCG, AAGGTCCT is lower in “PBM E-score” value: 0.089 for the first, -0.264 for the second.

Compared with AGACAGGC, ATACACGA is higher in “PBM E-score” value: -0.157 for the first, 0.432 for the second.

First: AATCGAGT
Second: CATACATA
The “PBM E-score” value of the first is lower: -0.00173 for the first, 0.329 for the second.

Compared with CGACCACC, ATAATAGA is higher in “PBM E-score” value: -0.235 for the first, 0.0374 for the second.

Going from GATGTTTA to CCACCACC, the “PBM E-score” value falls from 0.223 to -0.213.

Going from AATTGAAT to CGTGCACG, the “PBM E-score” value falls from 0.131 to -0.059.

First: GTGACCCA
Second: CTACCACC
The “PBM E-score” value of the first is higher: -0.0947 for the first, -0.202 for the second.

Going from ATCCGCGG to CGGTAAAG, the “PBM E-score” value rises from -0.141 to 0.00317.
